In all, about 420,000 compounds went through this assay and about 64,000 (15%) were called active. Inconclusive results, whose numbers are uncertain, are shown with a selection of clear calls. The call rests on the fitted dose curve; in most records, active means well fitted inhibition curve with a large enough effect; inconclusive means small, poorly fitted or top-dose-only effect; inactive means flat fitted curve, though single readings scatter. No potency is given beside an inconclusive call; the fits are too rough.
Assay: qHTS for Inhibitors of human tyrosyl-DNA phosphodiesterase 1 (TDP1): qHTS in cells in absence of CPT; further: nearly all actives have a fitted effect of over 55% in size
Conditions: DT40 Tdp1-/- hTDP1 cells, no CPT, ATP luminescence, 48 h; activity change, negative = growth inhibition: at 46.2 µM (top of the series)
In short: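 Camptothecin absent (DMSO only). Human TDP1-complemented DT40 knockout cells, 400 cells/well, 37 °C for minimum 48 hr; ATP measured via CellTiter-Glo, 30 min dark incubation, luminescence.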
On the % scale 0 is the no-effect control and ±100 the full control effect; potency means the concentration at half of the fitted maximal effect; tags describe the fitted curve by direction and shape.

Structure (SMILES) | Potency | activity change, negative = growth inhibition
C[C@H]1CN([C@@H](C)CO)C(=O)c2cc(C#Cc3cccnc3)cnc2O[C@H]1CN(C)Cc1ccc(F)cc1 | inconclusive [inhibitor, partial curve] | 
Cc1onc(-c2ccccc2)c1C(=O)NC(=S)Nc1sc2c(c1C#N)CCC(C)C2 (stereo not given) | inconclusive [inhibitor, single point] | 
NC(=O)C1(Nc2ccc(-c3ccc(Cl)cc3)cc2)CCCC1 | inconclusive [inhibitor, single point] | 
CC1(O)N(CCC(=O)Nc2cccc(F)c2)C(=O)OC12CCCCC2 (stereo not given) |  | inactive: 13.5%
COc1ccc(CNS(=O)(=O)c2ccc(Br)s2)cc1 |  | inconclusive: -24.2% [inhibitor]
CN1CCC(=NNC(=O)C(=O)NC2CCCCC2)CC1 |  | inactive: -12.7%
Nc1cccc2c1C(=O)N(C(=O)/C=C/c1ccc(F)cc1)C2=O | active: 23.1 µM | 
CCOC(=O)CSc1nc2ccc(N3CCOCC3)cc2c(=O)n1Cc1ccccc1 |  | inactive: -58.5%
CCOC(=O)C1CCCN(C(=O)c2cc3ccc(OC)cc3[nH]2)C1 (stereo not given) | inconclusive [inhibitor, single point] | 
COC(=O)[C@H](CCSC)NC(=O)Nc1ccc(OC)cc1 |  | inactive: 8.53%
CN1/C(=C\C(=S)Nc2ccccc2)C(C)(C)c2ccccc21 | active: 2.06 µM | 
CCOc1cc(/C=N/O)cc(Br)c1OCC |  | inactive: -28.3%
COc1ccc(C(=O)N/C(=C\c2ccc(OC)c(OC)c2)C(=O)N2CCCCC2)cc1 | inconclusive [inhibitor, single point] | 
Cc1ccccc1C(=O)NC1(C(F)(F)F)N=C(c2ccccc2)N(Cc2ccccc2)C1=O (stereo not given) | active: 23.1 µM | 
COc1cc(C(=O)NCC2CCCO2)ccc1OCc1ccc(Cl)cc1 (stereo not given) | inconclusive [inhibitor, single point] | 
CCOC(=O)c1c(C)[nH]c(C(=O)CSc2nnc(Nc3ccccc3F)s2)c1C | inconclusive [inhibitor, single point] | 
COc1ccc(NC(=O)COC(=O)CN2C(=O)C3CCCCC3C2=O)cc1OC (stereo not given) |  | inactive: -18.2%
Oc1ccc(-c2csc(Nc3ccccn3)n2)cc1 | inconclusive [inhibitor, single point] | 
CCOC(=O)C(=Cc1cn(C)c2ccc(S(=O)(=O)N(C)C)cc12)C(=O)OCC | inconclusive [inhibitor, single point] | 
COc1ccc(COC(=O)c2ccc(Cl)c(S(=O)(=O)N3CC(C)OC(C)C3)c2)cc1 (stereo not given) | inconclusive [inhibitor, single point] | 
CCSc1nc2ccccc2[nH]1 | inactive | 
Cc1ccc2nc(N3CCC(C(=O)NCc4ccc(F)cc4)CC3)[nH]c2c1 | inconclusive [inhibitor, single point] | 
Nc1nc2c(ncn2[C@@H]2O[C@H](CNC(=O)[C@H](N)Cc3cncn3COCc3ccccc3)[C@@H](O)[C@H]2O)c(=O)[nH]1 |  | inactive: 9.89%
Cc1ccc(S(=O)(=O)CCC(=O)OCCOc2cccc(Br)c2)cc1 |  | inactive: -25%

Structure (SMILES) | Potency | activity change, negative = growth inhibition
CS(=O)(=O)N1CCC2(CC1)CN(c1cccc(-c3ccccc3)c1)C2 | active: 18.4 µM | 
COC(=O)c1ccc(Oc2nc3c(c(=O)n(C)c(=O)n3C)n2C(C)C)cc1 |  | inactive: -23.2%
CCC(c1nnc(SCC(=O)Nc2c(F)cccc2F)n1Cc1ccccc1)N(C)C (stereo not given) |  | inactive: -0.667%
COc1ccc(C(=O)NCc2nnc(SCCOc3ccccc3)n2C)cc1 | active: 29.1 µM | 
O=C(C[C@H]1C/C=C\C[C@@H](Cc2ccc(F)cc2)C(=O)OC[C@@H](Cc2c[nH]c3ccccc23)NC1=O)NCCO | inconclusive [inhibitor, single point] | 
CC(C)(C)N1CC(c2nc3ccccc3n2Cc2ccc(Cl)cc2)CC1=O (stereo not given) | inconclusive [inhibitor, partial curve] | 
Cc1cc(C)c(S(=O)(=O)NCc2csc(-c3ccccc3)n2)c(C)c1 | inconclusive [inhibitor, single point] | 
CC1(c2ccc3c(c2)OCCCO3)NC(=O)N(CC(=O)Nc2cccc(C#N)c2)C1=O (stereo not given) | inconclusive [inhibitor, single point] | 
Cc1c(Br)cnc2ccccc12 |  | inactive: 4.57%
O=C(CN1c2ccccc2Sc2ccccc21)NNC(=S)Nc1ccc(Cl)cc1 |  | inactive: -15%
COc1ccc(/C=N/NC(=O)CCc2n[nH]c(=O)[nH]c2=O)cc1OC |  | inactive: -5.98%
N#C/C(=C\c1ccc(OC(=O)c2cccs2)cc1)c1nc2ccccc2[nH]1 | inconclusive [inhibitor, single point] | 
CCn1c(SCc2ccc(Cl)cc2Cl)nc2nc3c(cc2c1=O)CCCC3 | inconclusive [inhibitor, partial curve] | 
Cc1cccc(CS(=O)(=O)Cc2ccc(C(=O)NCC3CCCO3)o2)c1 (stereo not given) | inconclusive [inhibitor, single point] | 
COc1ccccc1NC(=O)Cn1nnc(C(=O)NCCc2ccccc2)c1N |  | inactive: -23.8%
C=CCSC(=C(C#N)C#N)c1cc2c([nH]1)CCCC2 | active: 11.6 µM | 
Cc1ccc(/C=N/NC(=O)c2cccc(NC(=O)c3ccccc3Cl)c2)o1 | inconclusive [inhibitor, partial curve] | 
CS(=O)(=O)Nc1cccc(NC(=O)c2cccc3c(-c4cccc(C(N)=O)c4)coc23)c1 | inconclusive [inhibitor, single point] | 
COc1cccc(-c2nn(-c3ccc(C)cc3)cc2C(=O)NCC2CCCO2)c1 (stereo not given) | inconclusive [inhibitor, single point] | 
CN(C)C(=O)CCc1ccc2c3c([nH]c2c1)[C@]1(C)[C@@H](C(=O)N2CCOCC2)C[C@H](CC(=O)NCC24CC5CC(CC(C5)C2)C4)C(=O)N1CC3 | inconclusive [inhibitor, single point] | 
CC(=O)NC(Cc1ccc(Cl)cc1)C(=O)NCC(N)C(=O)c1ccccc1 (stereo not given) | inconclusive [inhibitor, single point] | 
Cc1nn(C)cc1C1C2=C(CC(C)(C)CC2=O)N(c2ccccc2)C2=C1C(=O)CC(C)(C)C2 |  | inactive: -9.86%
Cc1c(C(=O)N2CCOCC2)c(S(=O)(=O)Nc2ccc(C(C)C)cc2)c(C)n1C | inconclusive [inhibitor, single point] | 
CNC(=S)N(CCc1c(C)[nH]c2ccccc12)Cc1ccco1 | inconclusive [inhibitor, single point] | 

Structure (SMILES) | Potency | activity change, negative = growth inhibition
c1ccc(-c2ccccc2OCCOCCN2CCCCC2)cc1 | inconclusive [inhibitor, single point] | 
COc1ccc(CCC(=O)N2CCN(c3cccc(C)c3C)CC2)cc1 | inconclusive [inhibitor, single point] | 
O=C(Nc1cccc(C(=O)N2CCCC2)c1)C1CCCCC1 |  | inactive: -19.4%
CC(C)(C)c1[nH]c2ccccc2c1/C=N/O | inconclusive [inhibitor, full curve, poor fit] | 
Cc1ccc(N2CCC(N3CCN(C4CCCCC4)C(CCO)C3)CC2)cc1 (stereo not given) |  | inactive: -18.5%
C=C1CC(COc2ccc3c(C)c(Cl)c(=O)oc3c2)(c2ccccc2)OC1=O (stereo not given) | active: 1.64 µM | 
Fc1ccc(-c2csc(Nc3ccccn3)n2)c(F)c1 | inconclusive [inhibitor, single point] | 
COc1ccc(N(C(C)C(=O)N/N=C/c2ccc(OCC(C)C)cc2)S(C)(=O)=O)cc1 (stereo not given) | inconclusive [inhibitor, single point] | 
CCN(CC)C(=O)c1sc2c(c1C)c(=O)n(-c1ccc(C)c(C)c1)c(=O)n2Cc1cccc(Cl)c1 | inconclusive [inhibitor, single point] | 
CC(C)(C)N(Cc1ccccc1)C(=O)COC(=O)Cn1cnc2ccccc2c1=O |  | inactive: -5.73%
Cc1cccc(S(=O)(=O)c2c(N)n(/N=C/c3ccco3)c3nc4ccccc4nc23)c1 | inconclusive [inhibitor, single point] | 
CCC(Sc1nc2cc3c(cc2c(=O)n1CCCC(=O)NCc1ccc(OC)cc1)OCO3)C(=O)NCCCOC (stereo not given) | inconclusive [inhibitor, single point] | 
CCCCCCc1cc2cc(S(=O)(=O)c3ccc(F)c(Cl)c3)c(=O)oc2cc1O | active: 7.31 µM | 
COCC1CCCN(C(=O)c2ccc3oc(Cc4ccc(Cl)cc4)nc3c2)C1 (stereo not given) | active: 8.2 µM | 
CCCc1nc(SCC(=O)c2ccc(OC)cc2)c2ccccc2n1 | inconclusive [inhibitor, single point] | 
CC(C)CCNC(=O)C1C2C=CC3(CN(Cc4ccccc4Cl)C(=O)C13)O2 (stereo not given) | inconclusive [inhibitor, single point] | 
O=C1CN(C(=O)c2ccc(S(=O)(=O)N3CCCCC3)cc2)C(c2ccc(F)cc2)c2cc(Br)ccc2N1 (stereo not given) | active: 20.6 µM | 
Fc1ccc(-c2ccnc(=S)[nH]2)cc1 | inconclusive [inhibitor, single point] | 
Cc1cccc(C)c1NC(=O)COC(=O)c1ccc(N2CCCC2)c([N+](=O)[O-])c1 | inconclusive [inhibitor, single point] | 
CCN(CC(=O)Nc1cccc(C(C)=O)c1)S(=O)(=O)c1ccc(OC)cc1 | inconclusive [inhibitor, single point] | 
CC(=O)CC(CC(=O)NC1CCCCC1)c1ccccc1 (stereo not given) |  | inactive: -5.74%
COCCNC(=O)CSc1c2c(nc3ccc(Cl)cc13)CCCC2 | inconclusive [inhibitor, single point] | 

— PubChem BioAssay AID686978 (National Center for Advancing Translational Sciences (NCATS), 2013)
